From paper PMC4336329 (PLoS ONE, 2015)
The campaign covered roughly 310,000 compounds. About 2,200 (0.71%) showed an effect of 50% or more. Effects have a minus sign here. The list shows a part of the results.

target: human ether-à-go-go-related gene (hERG) potassium channel (human, UniProt Q12809); assay: primary screen, population patch clamp on CHO cells stably expressing hERG
Sequence (Q12809 whole entry, looked up): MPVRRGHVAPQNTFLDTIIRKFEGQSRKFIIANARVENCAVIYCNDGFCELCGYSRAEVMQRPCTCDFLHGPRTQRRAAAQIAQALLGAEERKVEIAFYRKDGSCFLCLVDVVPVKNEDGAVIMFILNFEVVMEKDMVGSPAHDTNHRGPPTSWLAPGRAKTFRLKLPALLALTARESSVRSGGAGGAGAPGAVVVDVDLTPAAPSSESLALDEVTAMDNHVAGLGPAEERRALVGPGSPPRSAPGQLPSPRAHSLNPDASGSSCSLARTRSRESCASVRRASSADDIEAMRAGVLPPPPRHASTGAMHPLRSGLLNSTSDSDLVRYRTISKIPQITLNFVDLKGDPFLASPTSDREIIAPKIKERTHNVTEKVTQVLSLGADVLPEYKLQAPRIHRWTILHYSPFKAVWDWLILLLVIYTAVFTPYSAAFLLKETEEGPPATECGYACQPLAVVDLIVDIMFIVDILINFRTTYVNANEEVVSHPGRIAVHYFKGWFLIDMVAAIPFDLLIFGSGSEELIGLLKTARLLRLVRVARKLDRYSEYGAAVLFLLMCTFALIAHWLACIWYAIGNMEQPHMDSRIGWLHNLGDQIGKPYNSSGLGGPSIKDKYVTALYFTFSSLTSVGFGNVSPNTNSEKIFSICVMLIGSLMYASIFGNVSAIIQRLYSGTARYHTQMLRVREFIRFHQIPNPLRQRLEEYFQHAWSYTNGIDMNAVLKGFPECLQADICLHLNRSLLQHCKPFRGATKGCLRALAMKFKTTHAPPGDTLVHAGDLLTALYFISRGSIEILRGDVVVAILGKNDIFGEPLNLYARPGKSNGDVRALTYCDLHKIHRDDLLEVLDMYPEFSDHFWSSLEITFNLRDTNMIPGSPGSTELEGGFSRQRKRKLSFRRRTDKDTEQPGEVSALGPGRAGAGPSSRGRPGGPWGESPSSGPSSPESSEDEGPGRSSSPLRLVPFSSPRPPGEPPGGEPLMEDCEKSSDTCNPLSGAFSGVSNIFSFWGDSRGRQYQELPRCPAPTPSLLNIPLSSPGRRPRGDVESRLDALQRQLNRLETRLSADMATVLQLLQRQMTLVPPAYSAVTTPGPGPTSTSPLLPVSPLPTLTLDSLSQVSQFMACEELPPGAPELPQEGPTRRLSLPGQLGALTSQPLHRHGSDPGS

In order of rising “hERG current change (%, negative = inhibition) at 1uM” value:
1. COc1ccc(Cl)cc1N/C(N)=N/c1nc(C)cc(C)n1  -79.1%
2. CC(=O)c1ccc(NC(=O)CSc2ccc(-c3ccc(-n4cccn4)cc3)nn2)cc1  -17.2%
3. COc1ccc(NC(=O)c2ccco2)cc1NC(=O)c1ccco1  -13.5%
4. Cc1nn2c([nH]c(=O)c3ccccc32)c1C=O  -8.39%
5. O=C(CCCn1cnc([N+](=O)[O-])n1)Nc1ccc(Cl)cc1Cl  -7.13%
6. c1ccc(-n2c(-c3ccncc3)nnc2-c2cccs2)cc1  -3.73%
7. COc1ccc(-c2cc(-c3cccs3)c(C#N)c(SCC(=O)NCc3ccccc3OC)n2)cc1  -3.19%
8. CCCC[n+]1c(-c2ccc(Cl)cc2Cl)csc1Nc1ccccc1.[Cl-]  -2.84%
9. CC(Sc1nnc2c(n1)C1(C)CCC2C1(C)C)C(=O)Nc1ccccc1 (centres unmarked)  -1.46%
10. CCOc1ccc(-n2cnc3c(=O)[nH]c(N)nc32)cc1  -1.21%
11. O=C1CCSc2ccc(Cl)cc2N1Cc1cccc(Cl)c1  -1.06%
12. CC1CCC(C(C)C)C(OC(=O)CSc2n[nH]c(=O)[nH]c2=O)C1 (centres unmarked)  -1.05%
13. Cc1cccc(NC(=O)NC(=S)NC(=O)c2ccccc2)c1  -0.187%
14. COc1ccc(OC)c(S(=O)(=O)N2CCC(C(=O)NCCC3=CCCCC3)CC2)c1  0.368%
15. c1ccc(-c2nnc(-c3ccccn3)nc2NC2CCCCC2)cc1  0.903%
16. COc1ccc(CN(C(=O)c2ccc3c(c2)OCCO3)C(C(=O)NC2CCCCC2)c2ccc3ncccc3c2)cc1 (centres unmarked)  0.939%
17. CCN(Cc1cccs1)C(=O)CN1C(=O)NC2(CCCc3ccccc32)C1=O (centres unmarked)  1.39%
18. O=C(CSc1nnc(NC2CC2)s1)Nc1ccc(N2CCOCC2)cc1  2.17%
19. CCOC(=O)c1[nH]c2ccc(OC)cc2c1NC(C)=O  3.16%
20. CCCc1noc(-c2ccc(-c3ccccc3)cc2)n1  3.45%
21. CCOC(=O)COc1cc(=O)n(CC)c2ccccc12  3.81%
22. Cc1c(C(=O)C(=O)NCCc2ccc(S(N)(=O)=O)cc2)c2ccccc2n1C  4.26%
23. CC(C)(C)OC(=O)CC1(C#N)c2ccccc2C(Br)=CN1C(=O)c1ccccc1 (centres unmarked)  4.29%
24. O=C(O)[C@H]1CCCN1S(=O)(=O)c1cccc2cccnc12  4.65%
25. O=[N+]([O-])c1cc(C(F)(F)F)ccc1NCCc1c[nH]c2ccccc12  4.69%
26. NC(=O)c1nn2c(C(F)(F)F)cc(-c3ccccc3)nc2c1Br  4.78%
27. O=S(=O)(Cc1ccc(Cl)cc1)N1CCN(c2ncccn2)CC1  4.96%
28. O=C(CN(Cc1cccs1)C(=O)CNC(=O)c1ccco1)NC1CCCCC1  4.97%
29. O=C1NC(Cc2ccccc2)C(=O)N1CC(=O)N1CCCc2ccccc21 (centres unmarked)  5.14%
30. Cc1nc(Nc2ccccc2)sc1C  5.24%
31. Cc1ccc(NC(=O)C(C)N2C(=O)C3CC=C(Cl)CC3C2=O)cc1 (centres unmarked)  5.34%
32. COc1ccc2nc(N/C(N)=N/C(=S)Nc3cccc(C)c3)nc(C)c2c1  5.47%
33. O=C(CN1C(=O)c2ccc([N+](=O)[O-])cc2C1=O)NCc1ccc(C(=O)O)cc1  5.75%
34. CC(=O)Nc1ccc(C(=O)Nc2nc(-c3cccnc3)cs2)cc1  5.99%
35. O=C(OC1CCc2ccccc2C1=O)c1ccccc1O (centres unmarked)  6.37%
36. COc1cccc(NS(=O)(=O)c2ccc3c(c2)C2C=CCC2C(c2ccc(C(=O)O)cc2)N3)c1 (centres unmarked)  6.39%
37. CCCCn1c(N)c(N(C)C(=O)c2ccc(-n3cccn3)cc2)c(=O)[nH]c1=O  6.43%
38. COc1ccc(C(=O)OCC(=O)Nc2ccc(N3CCOCC3)cc2)cc1OC  6.6%
39. CC(NC(=O)CN1C(=O)NC(Cc2ccccc2)(Cc2ccccc2)C1=O)C12CC3CC(CC(C3)C1)C2 (centres unmarked)  6.65%
40. CCOC(=O)C1=C(N)Oc2cc(O)ccc2C1c1cccnc1 (centres unmarked)  6.7%
41. COc1ccc(-n2c(C)cc(C(=O)Cn3c(NCCO)nc4ccccc43)c2C)cc1  7.65%
42. O=C(NCc1ccccc1)C1=C[C@@H](c2ccc3c(c2)OCO3)C[C@@H](OCCCCO)O1  7.83%
43. Cc1ccc(CCNC(=O)c2nnn(-c3cc(C)cc(C)c3)c2N)cc1  8.01%
44. CN1C(=O)c2c(sc3c2CCCC3)NC1c1ccccc1O (centres unmarked)  8.04%
45. COc1cc(S(=O)(=O)N2CCC(c3nc4ccccc4s3)CC2)ccc1S(=O)(=O)NC1CCCC1  8.39%
46. O=C(NC(=S)Nc1ccccc1N1CCN(C(=O)c2ccccc2)CC1)c1ccccc1F  9.11%
47. CC(C)NC(=O)COCc1cc(-c2ccc3c(c2)OCO3)on1  9.13%
48. CSCC[C@H](NC(=O)[C@H](Cc1ccccc1)n1c(=O)[nH]c2ccccc2c1=O)C(=O)NCC1CCC(C(=O)O)CC1 (some centres unmarked)  9.22%
49. COc1ccc(Cl)cc1NC(=O)CN(C)C(=O)Cc1ccc(-c2ccccc2)cc1  9.48%
50. Cc1cc(=O)n2c3ccccc3n(CC(O)CN3CCOCC3)c2c1C#N (centres unmarked)  9.67%
51. COc1ccc(S(=O)(=O)N2CCC(C(=O)NCc3ccco3)CC2)cc1C  9.74%
52. O=C(O)CSc1nnc(-c2ccco2)o1  9.83%
53. COC(=O)c1ccc(/C=N/NC(=S)NC(C)C)cc1  9.96%
54. CCOC(=O)C(C)c1nn(C)c(=O)c2ccccc12 (centres unmarked)  9.97%
55. COc1ccc(NC(=O)CSc2nnc(-c3ccco3)c(-c3ccco3)n2)cc1OC  10.4%
56. O=C(NC1CS(=O)(=O)CC1NCc1ccccc1)c1ccccc1 (centres unmarked)  10.4%
57. COc1ccccc1CC(=O)Nc1ccc(C(=O)N2CCCCC2)cc1  10.6%
58. Cc1ccc(S(=O)(=O)N2CCOCC2)cc1C(=O)OCC(=O)Nc1ccc2c(c1)OCO2  10.7%
59. O=C(COC(=O)Cc1ccccc1)Nc1ncc(Cl)cc1Cl  10.7%
60. CN(C)c1cc2c(cc1NS(=O)(=O)c1ccccc1)n(C)c(=O)n2C  11.2%
61. COc1ccc(-c2cn(Cc3ccc(C)cc3)nn2)cc1  11.3%
62. CCOc1ccc(C2CC(c3cccc(Cl)c3)n3nc(N)nc3N2)cc1 (centres unmarked)  11.5%
63. O=C(c1c(F)cccc1F)N(Cc1cccs1)C1CCCC1  11.5%
64. NC(=O)Cn1c(=O)n(CCC(=O)NCCSCc2ccccc2)c(=O)c2ccccc21  11.5%
65. COc1ccc(/C=C(/C#N)S(=O)(=O)c2ccc(C)cc2)cc1  11.8%
66. NC1=NC(c2ccc([N+](=O)[O-])cc2)N(c2ccc(F)cc2)C(N)=N1 (centres unmarked)  11.9%
67. CN1CCN(CCc2nc3cc(NC(=O)COc4ccc([N+](=O)[O-])cc4)ccc3n2C)CC1  12%
68. N#Cc1ccccc1NC(=S)NC(=O)c1cccnc1  12.1%
69. CCOC(=O)N1CCN(S(=O)(=O)c2c(C)nc3scc(C)n3c2=O)CC1  12.3%
70. Cc1cc(C(=O)Nc2cccc([N+](=O)[O-])c2C)cs1  12.6%
71. Cc1ncc2c(c1OC(=O)c1ccccc1)COC(C)(C)OC2  12.8%
72. O=C(O)c1cc(S(=O)(=O)O)cc(Nc2c3ccccc3nc3ccccc23)c1O  12.9%
73. O=C(NCC1CCCO1)c1ccc(Cl)c(F)c1F (centres unmarked)  13%
74. O=C(NCc1cccnc1)c1noc2c1CCCCC2  13.2%
75. CC(C)CCNC(=O)CSc1nc2ccccc2s1  13.9%
76. Cc1cc(C(=O)CS(=O)c2ccc(F)cc2)cc(C)c1OC(=O)N(C)C (centres unmarked)  14.3%
77. O=C(CCC(=O)c1cccs1)OCC(=O)c1ccc(Cl)s1  14.8%
78. COc1cc(/C=N/Nc2ccc3ccccc3c2)ccc1OC(=O)c1ccco1  15.3%
79. CCCCc1ccc(NC(=O)CSc2nc3ncccc3[nH]2)cc1  15.3%
80. Cc1cc(-c2n[nH]c(=S)n2Cc2ccco2)nn1C  15.3%
81. COc1ccc(NC(=O)CCn2c(=S)[nH]c3ccccc3c2=O)cc1  15.3%
82. Cc1ccc(C(=O)Nc2ncc3c(n2)CC(c2ccco2)CC3=O)cc1 (centres unmarked)  15.5%
83. COc1ccc(-c2csc(CCn3nc(C)cc3C)n2)cc1  16.7%
84. Cc1cccnc1NC(=O)Cn1c(=O)oc2ccccc21  16.9%
85. CC(C)NC(=S)N/N=C/C1=CCC2CC1C2(C)C (centres unmarked)  16.9%
86. O=S(=O)(c1ccc(Br)s1)N1CCN(c2ccc(F)cc2)CC1  18.2%
87. COc1ccc2sc3ccccc3c(=O)c2c1OC  19%
88. CCN1C(=O)N[C@@H](c2cccc(F)c2)C(C(=O)OC)=C1C  20.4%
89. O=C(c1ccccc1)N1CCN(C(=O)N2CCOCC2)CC1  23.6%
